Results on 42 compounds are retold here after ChEMBL document CHEMBL4888484, “Replenishing the malaria drug discovery pipeline: Screening and hit evaluation of the MMV Hit Generation Library 1 (HGL1) against asexual blood stage Plasmodium falciparum ,using a nano luciferase reporter read-out” (2022).

Screen size: about 150,000 compounds; about 540 (0.36%) showed an effect of 50% or more. The list shows a part of the results.

The experiment concerns Plasmodium falciparum. Kind of experiment: Primary screen in NF54 nanoGlo assay, in single point, at 2uM, 72h; a lower Z score goes with more inhibition. The conditions noted are these: timepoint 72 hour. It counts as functional, Erythrocyte.
For the compound `CCc1nc(CN2C[C@@H]3CC[C@H]2CN(C2CCOCC2)C3)cs1`, the % Inhibition – broadly, the change of the read-out against control, counted positive when it falls – amounted to 7% and the Z score is -0.93.

For `COc1ccc(C(=O)CN2C=CCC=C2c2nc(-c3ccc(Cl)cc3)cs2)cc1`, the “% Inhibition” value came to 75% and the Z score is -6.73.

As for `C[C@@H](c1ccccc1Br)N(C)CC(C)(C)S(C)(=O)=O`, the “% Inhibition” value is recorded as -2% and the Z score amounted to 0.3.

In the case of `O=S(=O)(Nc1cccc2oc(C(F)(F)F)nc12)c1ccc(Br)cc1`, the “% Inhibition” value is on record as 18% and the Z score is -3.12.

As for `Cc1cc(C(=O)N(C)C(C)C(C)S(C)(=O)=O)c(C)o1` (centres undefined), the “% Inhibition” value was -14% and the Z score is on record as 1.29.

Regarding `O=C(CCN1CCC[C@H](n2cncn2)C1)c1ccccc1`, the “% Inhibition” value is listed as -11% and the Z score is on record as 1.53.

With `CCn1c(-c2ccc(C(=O)NCc3ccc(OC)c(OC)c3)cc2)nc2cccnc21`, the “% Inhibition” value amounted to 0% and the Z score was -0.06.

On to `CC1(NC(=O)C[C@H](O)c2cc(Cl)cc(Cl)c2)CCOCC1`, for which the “% Inhibition” value is reported as -3% and the Z score worked out at 0.31.

On to `CCC(C)C(OC)C(=O)Nc1ccc(C)nc1` (centres undefined), for which the “% Inhibition” value is -8% and the Z score was determined as 0.85.

For `NC(=O)[C@@H]1COCCN1CC(=O)N1CCC(Cc2ccccc2)CC1`, the “% Inhibition” value was -1% and the Z score was 0.13.

As to `C#CCCC1(CCC(=O)N2CCN(Cc3cc(C)no3)CC2)N=N1`, the “% Inhibition” value was -17% and the Z score is given as 1.95.

In the case of `Cc1nc(O)[nH]c(=O)c1S(=O)(=O)N(Cc1ccccc1)Cc1ccccc1`, the “% Inhibition” value came to 10% and the Z score was -1.2.

For the compound `O=C([C@H](Cc1ccccc1)NS(=O)(=O)c1ccccc1F)N1CCOCC1`, the “% Inhibition” value was -9% and the Z score was determined as 1.32.

On to `Cc1noc(C)c1CC(=O)N[C@@H](C)c1nnc2n1CCCCC2`, for which the “% Inhibition” value is on record as -6% and the Z score turned out to be 0.92.

With `CCNC(=O)c1csc(COc2ccc3c(c2)[C@H](c2ccccc2)N(C(=O)c2ccco2)CC3)n1`, the “% Inhibition” value was -8% and the Z score is listed as 0.71.

Consider `Cc1ccccc1CCNC(=O)[C@H]1CCCN(c2nc3ccc(Br)cc3[nH]2)C1`, for which the “% Inhibition” value amounted to 6% and the Z score is -1.11.

Regarding `COc1ccc(F)c(CN2CCC[C@@]3(CCN(C(=O)Cn4ccnc4)C3)C2)c1`, the “% Inhibition” value is on record as -9% and the Z score came out at 1.25.

With `O=C1CN(C(=O)Cn2c(-c3ccccc3)nn(-c3ccc(Cl)cc3)c2=O)CCN1`, the “% Inhibition” value is on record as -6% and the Z score was found to be 0.83.

Regarding `CC(C)CN1CCC([C@H]2CCN(c3ccnc(N)n3)C2)CC1`, the “% Inhibition” value was -1% and the Z score was determined as 0.18.

Consider `COCCNc1cncc(-c2ccsc2)c1`, for which the “% Inhibition” value was -4% and the Z score was 0.6.

With `COc1ccccc1N1CCN(C(=O)c2cnc(-c3ccc4c(c3)OCO4)nc2Nc2cccc(F)c2)CC1`, the “% Inhibition” value is on record as -13% and the Z score was found to be 1.25.

As to `CCCc1ccc([C@@]2(C)NC(=O)N(CC(=O)N3CCc4cc(OC)c(OC)cc4C3)C2=O)cc1`, the “% Inhibition” value is reported as -5% and the Z score is 0.44.

Turning to `O=C1[C@@H](n2ccnn2)CCN1c1ccccc1Cl`, the “% Inhibition” value is recorded as 11% and the Z score is -1.42.

With `O=C(NCCN1CCCC1)Nc1cccc(-c2cscn2)c1`, the “% Inhibition” value turned out to be 12% and the Z score is -1.75.

In the case of `CC(C)Oc1ccc(C(=O)N2Cc3cncnc3C2)nc1`, the “% Inhibition” value was determined as 0% and the Z score came to 0.05.

For `COc1ccc2c(c1)CCCN(C(=O)[C@H]1CCc3nc(C)nn3C1)C2`, the “% Inhibition” value was -7% and the Z score is recorded as 0.78.

Consider `Cc1ccnc(NC(=O)c2cc(N3CCCC3)ncn2)c1`, for which the “% Inhibition” value is -4% and the Z score amounted to 0.71.

Turning to `Cc1c(-c2nnc(C(=O)NCCc3ccc(Cl)cc3)o2)oc2ccccc12`, the “% Inhibition” value is recorded as -19% and the Z score was found to be 2.93.

Turning to `Cc1cc(CN2CCN(C(=O)NCC3CCC(C)(C)CC3)CC2)on1`, the “% Inhibition” value is listed as -12% and the Z score turned out to be 1.69.

Take `C[C@@H]1NC(=O)COc2cc(O)cc(c2)C(=O)NCCCN(C(=O)C2C(C)(C)C2(C)C)CCCCN(C)C1=O`: the “% Inhibition” value is listed as 7% and the Z score was -1.

In the case of `CCc1c(C(=O)N(C)Cc2ccccc2)c(=O)cc(C)n1C[C@H]1CCCN1CC`, the “% Inhibition” value is -10% and the Z score is 1.91.

As for `COCC(C)NC(=O)c1cc2n(n1)[C@H](C(F)(F)F)C[C@H](c1ccco1)N2` (some centres undefined), the “% Inhibition” value is 0% and the Z score turned out to be 0.06.

With `C#CCNC(=O)c1c(-c2ccc(F)cc2)[nH]n(C(C)C)c1=O`, the “% Inhibition” value was -20% and the Z score was found to be 2.04.

For `COc1ccc2nc(N3CC(C(=O)Nc4cccc5nc(C)ccc45)C3)sc2c1`, the “% Inhibition” value is 5% and the Z score is -0.79.

For the compound `C[C@]1(CNC(=O)CN2CCOCC2)CCCN1Cc1ccccc1`, the “% Inhibition” value is -2% and the Z score turned out to be 0.44.

With `O=C(Cn1ncc2c([nH]c3ccccc32)c1=O)N1CCC(Cc2ccccc2)CC1`, the “% Inhibition” value is given as -4% and the Z score is recorded as 0.58.

With `C[C@@H](Cc1cccc(F)c1)C(=O)NC1CCS(=O)(=O)CC1`, the “% Inhibition” value is on record as -19% and the Z score came out at 3.36.

Regarding `Cc1noc([C@H](C)NC(=O)c2ccncc2C)n1`, the “% Inhibition” value is given as -15% and the Z score was 1.57.

For `C[C@@H]1CN(c2nnc(-c3n[nH]c4c3CCCC4)n2C)C[C@H](C)O1`, the “% Inhibition” value is given as -14% and the Z score is 2.01.

As to `Cc1c(Cl)cnc(NC(=O)COC(=O)[C@H](C)NC(=O)c2ccccc2)c1Cl`, the “% Inhibition” value was -3% and the Z score is on record as 0.51.

As for `O=c1c(Cc2ccccc2)c(O)nc2ccccn12`, the “% Inhibition” value turned out to be 5% and the Z score is given as -0.59.

On to `CN(C)C(=O)c1cncc(N[C@@H](CC(C)(C)C)c2cccnc2)n1`, for which the “% Inhibition” value is -20% and the Z score amounted to 2.56.
